Test results taken from patent publication US10299477B2 (priority 2015, dated 2019).

Columns and labels:
Format in all cases: in vivo
[1] = test system: Blumeria graminis f sp. hordei; assay: Test Example D: Powdery mildew on barley; conditions: Powdery mildew on barley
Description: [Test Example D] Powdery Mildew on Barley
After the sprayed dilutions were dried, conidia of Blumeria graminis f sp. hordei were inoculated to the plants by shaking off.

[2] = test system: Puccinia recondita; assay: Test Example E: Brown rust on wheat; conditions: Brown rust on wheat
Description: [Test Example E] Brown Rust on Wheat

[3] = test system: Alternaia brassicicola; assay: Test Example C: Alternaria sooty spot on cabbage; conditions: Alternaria sooty spot on cabbage
Description: [Test Example C] Alternaria Sooty Spot on Cabbage
Seeds of a test plant (cabbage variety: Shikidori) were planted followed by cultivating until the cotyledons extended.

[4] = test system: Botrytis cinerea; assay: Test Example B: Gray mold on tomato; conditions: Gray mold on tomato
Description: [Test Example B] Gray Mold on Tomato
Seeds of a test plant (tomato variety: Oogata Fukuju) were planted followed by cultivating until three to five first leaves (true leaves) appeared.

Row | SMILES | Test D control value [1] | Test E control value [2] | Test C control value [3] | Test B control value [4]
1 | Cn1c(-c2c(F)cccc2F)c(-c2ccc(F)cc2)ccc1=O [Compound 19] | H (H shows more than 50% of control values) | H (H shows more than 50% of control values) | H (H shows more than 50% of control values) | H (H shows more than 50% of control values)
2 | CCn1c(-c2c(F)cccc2F)c(-c2ccc(F)cc2)ccc1=O [Compound 20] | H (H shows more than 50% of control values) | H (H shows more than 50% of control values) | H (H shows more than 50% of control values) | H (H shows more than 50% of control values)
3 | CN1C(=O)CCC(c2ccc(F)cc2)=C1c1ncc(Cl)cc1Cl [Compound 21] | H (H shows more than 50% of control values) | H (H shows more than 50% of control values) | H (H shows more than 50% of control values) | H (H shows more than 50% of control values)
4 | Cn1c(-c2ncc(Cl)cc2Cl)c(-c2ccc(F)cc2)cc(Br)c1=O [Compound 22] | H (H shows more than 50% of control values) | H (H shows more than 50% of control values) | H (H shows more than 50% of control values) | H (H shows more than 50% of control values)
5 | Cn1c(-c2ncc(Cl)cc2Cl)c(-c2ccc(F)cc2)ccc1=O [Compound 23] | H (H shows more than 50% of control values) | H (H shows more than 50% of control values) | H (H shows more than 50% of control values) | H (H shows more than 50% of control values)
6 | CCN1C(=O)CCC(c2ccc(F)cc2)=C1c1ncc(Cl)cc1Cl [Compound 24] | H (H shows more than 50% of control values) | H (H shows more than 50% of control values) | H (H shows more than 50% of control values) | H (H shows more than 50% of control values)
7 | CCn1c(-c2ncc(Cl)cc2Cl)c(-c2ccc(F)cc2)cc(Br)c1=O [Compound 25] | H (H shows more than 50% of control values) | H (H shows more than 50% of control values) | H (H shows more than 50% of control values) | H (H shows more than 50% of control values)
8 | CCn1c(-c2ncc(Cl)cc2Cl)c(-c2ccc(F)cc2)ccc1=O [Compound 26] | H (H shows more than 50% of control values) | H (H shows more than 50% of control values) | H (H shows more than 50% of control values) | H (H shows more than 50% of control values)
9 | COc1cc(OC)cc(C2=C(c3c(F)cccc3F)N(C)C(=O)CC2)c1 [Compound 27] | L (L shows 50% or less of control values) | H (H shows more than 50% of control values) | H (H shows more than 50% of control values) | L (L shows 50% or less of control values)
10 | COc1cc(OC)cc(-c2ccc(=O)n(C)c2-c2c(F)cccc2F)c1 [Compound 28] | L (L shows 50% or less of control values) | H (H shows more than 50% of control values) | H (H shows more than 50% of control values) | H (H shows more than 50% of control values)
11 | COc1cc(OC)c(Br)c(-c2ccc(=O)n(C)c2-c2c(F)cccc2F)c1 [Compound 29] | H (H shows more than 50% of control values) | H (H shows more than 50% of control values) | H (H shows more than 50% of control values) | H (H shows more than 50% of control values)
